Legend:
[1] = molecular target: T1, human GM-CSF (granulocyte macrophage-colony stimulating factor) (human, UniProt P04141); experiment: ELISA on GM-CSF
T1 construct: Soluble cytokine used in ELISA, SPR, TF-1 bioassay and immune complex formation; also called recombinant GM-CSF

[2] = molecular target: T1, human GM-CSF (granulocyte …); experiment: cell-based or functional assay

T1 sequence (P04141 18-144 limits assumed): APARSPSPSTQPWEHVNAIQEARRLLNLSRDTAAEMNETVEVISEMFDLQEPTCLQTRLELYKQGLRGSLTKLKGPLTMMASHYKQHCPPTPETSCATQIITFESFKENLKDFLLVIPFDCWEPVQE

Binder	EC50 [1]	IC90 less stringent conditions (50 pg/ml GM-CSF, 1,000 TF-1/well) [2]	IC90 more stringent conditions (500 pg/ml GM-CSF, 1,000 TF-1/well) [2]	IC90 stringent conditions (50 pg/ml GM-CSF, 10,000 TF-1/well) [2]	IC90 very stringent conditions (500 pg/ml GM-CSF, 10,000 TF-1/well) [2]
Ts3GC2e trispecific antibody (antibody, human IgG1, kappa, Trispecific hexavalent IgG1, construct type Ts3; specificities GCE536 + GCA7 + GCB59) heavy: EVQLVESGGDLVKAGGSLRLSCAVSGLSFSSSGMNWVRQAPGKGLEWISSISGSQNYKYYADSVKGRFVVSRDNARNFLYLQMDSLRAEDTAVYFCVGGFPYWLPPSDFSGFHVWGQGTTVTVSSGGGGSGGGGSGGGGSSYVLTQPPSVSVAPGQTASLTCGGTNIGSKSVHWYQQKAGQAPVLVVYADNDRPSGVPERFSGSNSGNTATLTISRVEAEDESDYFCQVWDGNTDHVVFGGGTKLTVLGGGGSGVQLVQSGGGLVQPGGSLRLSCAASGFTVSTNYMSWVRQAPGKGLEWVSILYAGGVTRYADSVKTRFTISRDNSKNTLFLQMNALSAEDTAIYYCAKHYDSGYSTIDHFDSWGQGTLVTVSSASTKGPSVFPLAPSSKSTSGGTAALGCLVKDYFPEPVTVSWNSGALTSGVHTFPAVLQSSGLYSLSSVVTVPSSSLGTQTYICNVNHKPSNTKVDKRV[human IgG1 Fc not spelt out]GGGGSQLQLVQSGTEVKKPGASVKVSCKSSGYVFTSYYLVWVRQAPGQGLEWMATISPGDVNTSYEQRFQGRVTVTTDASTNTVDMELRSLRSEDTAVYYCARGPRSKPPYLYFALDVWGQGTAVTVSSGGGGSGGGGSGGGGSEIVLTQSPGTLSLSPGETAILSCRASQSVSSSLLAWYQQKPGQAPRLLIYGASNRATGIRGRFSGSGSGTDFTLTISRLEPEDFVLYYCQHYGSRVTFGQGTKLEIK light: DIQMTQSPDSVAVSLGERATINCKSSQSVFYTSKNKNYLAWFQQKPGQPPKLLIYWASTRESGVPDRFSGSGSGTDFTLTISSLRPEDVAVYYCQQYYSTPFTFGPGTKVDIKRTVAAPSVFIFPPSDEQLKSGTASVVCLLNNFYPREAKVQWKVDNALQSGNSQESVTEQDSKDSTYSLSSTLTLSKADYEKHKVYACEVTHQGLSSPVTKSFNRGEC	40.7 ng/mL	0.296 ng/mL	3.29 ng/mL	0.272 ng/mL	3.68 ng/mL
Bs3GC1b bispecific antibody (bispecific antibody, human IgG1, kappa, Bispecific tetravalent IgG1, construct type Bs3; specificities GCE536 + GCA7) heavy: GVQLVQSGGGLVQPGGSLRLSCAASGFTVSTNYMSWVRQAPGKGLEWVSILYAGGVTRYADSVKTRFTISRDNSKNTLFLQMNALSAEDTAIYYCAKHYDSGYSTIDHFDSWGQGTLVTVSSASTKGPSVFPLAPSSKSTSGGTAALGCLVKDYFPEPVTVSWNSGALTSGVHTFPAVLQSSGLYSLSSVVTVPSSSLGTQTYICNVNHKPSNTKVDKRV[human IgG1 Fc not spelt out]GGGGSQLQLVQSGTEVKKPGASVKVSCKSSGYVFTSYYLVWVRQAPGQGLEWMATISPGDVNTSYEQRFQGRVTVTTDASTNTVDMELRSLRSEDTAVYYCARGPRSKPPYLYFALDVWGQGTAVTVSSGGGGSGGGGSGGGGSEIVLTQSPGTLSLSPGETAILSCRASQSVSSSLLAWYQQKPGQAPRLLIYGASNRATGIRGRFSGSGSGTDFTLTISRLEPEDFVLYYCQHYGSRVTFGQGTKLEIK light: DIQMTQSPDSVAVSLGERATINCKSSQSVFYTSKNKNYLAWFQQKPGQPPKLLIYWASTRESGVPDRFSGSGSGTDFTLTISSLRPEDVAVYYCQQYYSTPFTFGPGTKVDIKRTVAAPSVFIFPPSDEQLKSGTASVVCLLNNFYPREAKVQWKVDNALQSGNSQESVTEQDSKDSTYSLSSTLTLSKADYEKHKVYACEVTHQGLSSPVTKSFNRGEC	71.6 ng/mL	0.555 ng/mL	4.37 ng/mL	0.712 ng/mL	5.93 ng/mL
Ts2GC2c trispecific antibody (antibody, human IgG1, kappa, Trispecific hexavalent IgG1, construct type Ts2; specificities GCE536 + GCA7 + GCB59) heavy: EVQLVESGGDLVKAGGSLRLSCAVSGLSFSSSGMNWVRQAPGKGLEWISSISGSQNYKYYADSVKGRFVVSRDNARNFLYLQMDSLRAEDTAVYFCVGGFPYWLPPSDFSGFHVWGQGTTVTVSSGGGGSGGGGSGGGGSSYVLTQPPSVSVAPGQTASLTCGGTNIGSKSVHWYQQKAGQAPVLVVYADNDRPSGVPERFSGSNSGNTATLTISRVEAEDESDYFCQVWDGNTDHVVFGGGTKLTVLGGGGSGVQLVQSGGGLVQPGGSLRLSCAASGFTVSTNYMSWVRQAPGKGLEWVSILYAGGVTRYADSVKTRFTISRDNSKNTLFLQMNALSAEDTAIYYCAKHYDSGYSTIDHFDSWGQGTLVTVSSASTKGPSVFPLAPSSKSTSGGTAALGCLVKDYFPEPVTVSWNSGALTSGVHTFPAVLQSSGLYSLSSVVTVPSSSLGTQTYICNVNHKPSNTKVDKRV[human IgG1 Fc not spelt out] light: QLQLVQSGTEVKKPGASVKVSCKSSGYVFTSYYLVWVRQAPGQGLEWMATISPGDVNTSYEQRFQGRVTVTTDASTNTVDMELRSLRSEDTAVYYCARGPRSKPPYLYFALDVWGQGTAVTVSSGGGGSGGGGSGGGGSEIVLTQSPGTLSLSPGETAILSCRASQSVSSSLLAWYQQKPGQAPRLLIYGASNRATGIRGRFSGSGSGTDFTLTISRLEPEDFVLYYCQHYGSRVTFGQGTKLEIKGGGGSDIQMTQSPDSVAVSLGERATINCKSSQSVFYTSKNKNYLAWFQQKPGQPPKLLIYWASTRESGVPDRFSGSGSGTDFTLTISSLRPEDVAVYYCQQYYSTPFTFGPGTKVDIKRTVAAPSVFIFPPSDEQLKSGTASVVCLLNNFYPREAKVQWKVDNALQSGNSQESVTEQDSKDSTYSLSSTLTLSKADYEKHKVYACEVTHQGLSSPVTKSFNRGEC	20.7 ng/mL	0.546 ng/mL	4.28 ng/mL	0.69 ng/mL	5.86 ng/mL
Bs2GC1d bispecific antibody (bispecific antibody, human IgG1, kappa, Bispecific tetravalent IgG1, construct type Bs2; specificities GCE536 + GCA7) heavy: GVQLVQSGGGLVQPGGSLRLSCAASGFTVSTNYMSWVRQAPGKGLEWVSILYAGGVTRYADSVKTRFTISRDNSKNTLFLQMNALSAEDTAIYYCAKHYDSGYSTIDHFDSWGQGTLVTVSSASTKGPSVFPLAPSSKSTSGGTAALGCLVKDYFPEPVTVSWNSGALTSGVHTFPAVLQSSGLYSLSSVVTVPSSSLGTQTYICNVNHKPSNTKVDKRV[human IgG1 Fc not spelt out] light: QLQLVQSGTEVKKPGASVKVSCKSSGYVFTSYYLVWVRQAPGQGLEWMATISPGDVNTSYEQRFQGRVTVTTDASTNTVDMELRSLRSEDTAVYYCARGPRSKPPYLYFALDVWGQGTAVTVSSGGGGSGGGGSGGGGSEIVLTQSPGTLSLSPGETAILSCRASQSVSSSLLAWYQQKPGQAPRLLIYGASNRATGIRGRFSGSGSGTDFTLTISRLEPEDFVLYYCQHYGSRVTFGQGTKLEIKGGGGSDIQMTQSPDSVAVSLGERATINCKSSQSVFYTSKNKNYLAWFQQKPGQPPKLLIYWASTRESGVPDRFSGSGSGTDFTLTISSLRPEDVAVYYCQQYYSTPFTFGPGTKVDIKRTVAAPSVFIFPPSDEQLKSGTASVVCLLNNFYPREAKVQWKVDNALQSGNSQESVTEQDSKDSTYSLSSTLTLSKADYEKHKVYACEVTHQGLSSPVTKSFNRGEC	22.6 ng/mL	3.08 ng/mL	9.6 ng/mL	6.3 ng/mL	15.9 ng/mL
Bs1GC3a bispecific antibody (bispecific antibody, human IgG1, kappa, Bispecific tetravalent IgG1, construct type Bs1; specificities GCA7 + GCB59; also called BsGC3a) heavy: EVQLVESGGDLVKAGGSLRLSCAVSGLSFSSSGMNWVRQAPGKGLEWISSISGSQNYKYYADSVKGRFVVSRDNARNFLYLQMDSLRAEDTAVYFCVGGFPYWLPPSDFSGFHVWGQGTTVTVSSGGGGSGGGGSGGGGSSYVLTQPPSVSVAPGQTASLTCGGTNIGSKSVHWYQQKAGQAPVLVVYADNDRPSGVPERFSGSNSGNTATLTISRVEAEDESDYFCQVWDGNTDHVVFGGGTKLTVLGGGGSGVQLVQSGGGLVQPGGSLRLSCAASGFTVSTNYMSWVRQAPGKGLEWVSILYAGGVTRYADSVKTRFTISRDNSKNTLFLQMNALSAEDTAIYYCAKHYDSGYSTIDHFDSWGQGTLVTVSSASTKGPSVFPLAPSSKSTSGGTAALGCLVKDYFPEPVTVSWNSGALTSGVHTFPAVLQSSGLYSLSSVVTVPSSSLGTQTYICNVNHKPSNTKVDKRV[human IgG1 Fc not spelt out] light: DIQMTQSPDSVAVSLGERATINCKSSQSVFYTSKNKNYLAWFQQKPGQPPKLLIYWASTRESGVPDRFSGSGSGTDFTLTISSLRPEDVAVYYCQQYYSTPFTFGPGTKVDIKRTVAAPSVFIFPPSDEQLKSGTASVVCLLNNFYPREAKVQWKVDNALQSGNSQESVTEQDSKDSTYSLSSTLTLSKADYEKHKVYACEVTHQGLSSPVTKSFNRGEC	46.8 ng/mL	0.744 ng/mL	4.64 ng/mL	0.737 ng/mL	13.3 ng/mL
